Test results reported in the supplement of paper PMC3334620.
Over roughly 33,000 sequences, “E-score (-0.5 to 0.5)” has its median near -0.041; the highest 2% begin near 0.37. This is one part of the list.

These sequences were tested against T1, Ecm22 (UniProt Q05958) (assay: PBM E-score (8-mer binding enrichment) (E-score (-0.5 to 0.5)); higher = stronger / more preferred TF binding; most listed sequences are background and not binding sites). Conditions: protein concentration: 200 nM; construct: GST-full length.
T1 sequence: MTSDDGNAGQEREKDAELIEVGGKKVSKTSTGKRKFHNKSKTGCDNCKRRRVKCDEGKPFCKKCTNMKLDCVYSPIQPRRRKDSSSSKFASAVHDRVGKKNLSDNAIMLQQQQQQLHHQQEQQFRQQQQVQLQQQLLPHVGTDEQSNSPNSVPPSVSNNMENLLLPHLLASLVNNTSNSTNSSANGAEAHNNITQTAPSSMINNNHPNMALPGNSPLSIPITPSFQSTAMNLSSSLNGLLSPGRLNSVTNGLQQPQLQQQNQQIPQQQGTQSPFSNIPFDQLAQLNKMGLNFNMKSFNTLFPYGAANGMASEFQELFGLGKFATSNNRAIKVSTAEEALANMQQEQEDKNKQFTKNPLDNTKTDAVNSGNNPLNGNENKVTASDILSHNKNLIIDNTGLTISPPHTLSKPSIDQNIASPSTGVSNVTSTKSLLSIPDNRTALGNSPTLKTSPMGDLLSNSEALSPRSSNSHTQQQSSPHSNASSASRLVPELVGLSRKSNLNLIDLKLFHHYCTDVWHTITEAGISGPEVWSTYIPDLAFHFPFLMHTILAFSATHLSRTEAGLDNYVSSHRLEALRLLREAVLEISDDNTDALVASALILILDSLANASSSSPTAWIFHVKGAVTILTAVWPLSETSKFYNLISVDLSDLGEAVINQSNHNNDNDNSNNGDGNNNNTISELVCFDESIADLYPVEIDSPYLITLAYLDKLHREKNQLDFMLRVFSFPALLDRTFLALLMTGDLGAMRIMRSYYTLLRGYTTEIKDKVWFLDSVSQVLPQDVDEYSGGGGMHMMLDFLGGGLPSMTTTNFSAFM
How it was run: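 The E-score, a modified Wilcoxon-Mann-Whitney statistic, was computed by the Universal PBM Analysis Suite for every ungapped eight-base word pooled with its reverse complement. Scans behind it were normalised with masliner after bound GST-tagged yeast transcription factors were detected with fluorescent anti-GST. The proteins, at about 100-200 nM, had been applied to universal all-10-mer Agilent arrays made double-stranded by primer extension.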

Going from ACCTGTGC to GTCTTCGA, the “PBM E-score” value rises from -0.138 to -0.0558.

Going from CGAGTGAG to TCTCCAGA, the “PBM E-score” value falls from 0.2 to -0.228.

First: AAGAGTGA
Second: CTACCAAA
The “PBM E-score” value of the first is higher: -0.0955 for the first, -0.148 for the second.

First: AGAACACT
Second: GCGTCATA
The “PBM E-score” value of the first is lower: 0.09 for the first, 0.103 for the second.

Going from AGGCTTGG to AACCCGCA, the “PBM E-score” value rises from -0.142 to 0.0467.

Going from AGAAAGTC to ATAAATCG, the “PBM E-score” value rises from 0.0488 to 0.139.

First: GAGTCGAC
Second: ACATAGTC
The “PBM E-score” value of the first is higher: -0.0529 for the first, -0.108 for the second.

Going from ACTCTCAG to CGTCGACA, the “PBM E-score” value rises from -0.239 to -0.0337.

Going from ACCCTGCT to GACAAGCC, the “PBM E-score” value rises from -0.133 to 0.0233.

Going from GGTCAGAA to CCGGAAAC, the “PBM E-score” value falls from -0.0884 to -0.103.

First: GGAATTAA
Second: CATACAAG
The “PBM E-score” value of the first is higher: 0.026 for the first, -0.122 for the second.

First: ATGTGTTG
Second: CTCCGAAC
The “PBM E-score” value of the first is higher: 0.114 for the first, 0.0277 for the second.

Compared with CCATGAGC, AACAGGGG is higher in “PBM E-score” value: -0.315 for the first, -0.191 for the second.

Compared with GCTTCGCA, AGGGCAAG is lower in “PBM E-score” value: 0.193 for the first, -0.164 for the second.

First: ATACGATG
Second: GAGCGAGC
The “PBM E-score” value of the first is higher: 0.472 for the first, 0.354 for the second.

Compared with ACGTATGG, ACTGTCTA is lower in “PBM E-score” value: 0.267 for the first, 0.0316 for the second.

First: ACTTCAAG
Second: CACAGCCC
The “PBM E-score” value of the first is higher: -0.232 for the first, -0.306 for the second.

Compared with GTGAAGGA, CAAACCGA is higher in “PBM E-score” value: -0.0823 for the first, 0.199 for the second.

Compared with ATGAACAC, GCAAAGAA is lower in “PBM E-score” value: 0.0536 for the first, 0.0167 for the second.

Compared with AAAAATTT, ACGAAAAT is higher in “PBM E-score” value: 0.058 for the first, 0.365 for the second.

Going from AGCGGTAA to ATAGGCAC, the “PBM E-score” value falls from -0.0814 to -0.311.

Compared with ACTATACG, AGTTAGCA is lower in “PBM E-score” value: 0.463 for the first, 0.0106 for the second.

Going from ACCAGAGG to ACAATAGG, the “PBM E-score” value rises from -0.206 to 0.0119.

First: AATAAAGA
Second: AATGCATA
The “PBM E-score” value of the first is lower: -0.0211 for the first, 0.114 for the second.

First: AGTGCGAG
Second: AGAGGCCA
The “PBM E-score” value of the first is higher: 0.186 for the first, -0.203 for the second.

Compared with GACTCCTC, CCGGGATC is higher in “PBM E-score” value: -0.0636 for the first, 0.0897 for the second.

First: TCGTCTAA
Second: AGCCCGAT
The “PBM E-score” value of the first is higher: 0.15 for the first, -0.0368 for the second.

First: TGTCCCAA
Second: ATCGTGGG
The “PBM E-score” value of the first is lower: -0.146 for the first, -0.0631 for the second.

Going from CGTATCTC to ATAGTCTG, the “PBM E-score” value falls from 0.318 to -0.113.

First: AACCATCA
Second: ATTCATAC
The “PBM E-score” value of the first is lower: -0.0958 for the first, 0.161 for the second.

Going from ACAACAGG to GATTTTAA, the “PBM E-score” value rises from -0.0852 to 0.0106.

Compared with ATGCAAAT, ATGAGTGC is higher in “PBM E-score” value: -0.0229 for the first, 0.143 for the second.

First: CTAAAAAA
Second: AAAATCAG
The “PBM E-score” value of the first is lower: -0.103 for the first, 0.106 for the second.

Compared with CAAGGTAA, CTCTTATC is lower in “PBM E-score” value: 0.0741 for the first, 0.0588 for the second.

Compared with CTTATCAA, ATGGATTG is higher in “PBM E-score” value: -0.0509 for the first, 0.0804 for the second.

Compared with GCTCTACA, AGTACTAC is higher in “PBM E-score” value: 0.0047 for the first, 0.105 for the second.

First: AGAGAAGC
Second: GGCTGGCA
The “PBM E-score” value of the first is higher: -0.0688 for the first, -0.393 for the second.

Going from ACGATTGG to CCATCTCG, the “PBM E-score” value falls from 0.138 to 0.105.

Compared with CTGGTGTA, AGCGGTTA is higher in “PBM E-score” value: -0.139 for the first, 0.0276 for the second.

Going from ATGCCTTC to AGGGAGCG, the “PBM E-score” value rises from -0.172 to 0.123.

Compared with CATACCGG, ATATTCAT is higher in “PBM E-score” value: -0.216 for the first, 0.0445 for the second.

Going from ACCGTCTC to CCGTTGAC, the “PBM E-score” value falls from 0.0168 to -0.0148.

Going from ACCGACCA to ATCAAGGA, the “PBM E-score” value falls from 0.234 to -0.0382.

Compared with AAAGATCA, ACACCTAC is lower in “PBM E-score” value: -0.0296 for the first, -0.181 for the second.

Compared with CCTTTCCC, ATGTAAAA is higher in “PBM E-score” value: -0.145 for the first, -0.0201 for the second.

Compared with ACTCAAGG, GTACAAAA is higher in “PBM E-score” value: -0.173 for the first, 0.21 for the second.

Compared with TACCCCGA, ATTTCACC is higher in “PBM E-score” value: -0.041 for the first, 0.0803 for the second.

Going from CAACGTTC to CTTTCCTA, the “PBM E-score” value falls from 0.152 to -0.392.

Compared with AGGTTGGA, CTGTTGAA is lower in “PBM E-score” value: -0.038 for the first, -0.0551 for the second.

Compared with ATCGTGTG, ATTTTGGC is lower in “PBM E-score” value: 0.0603 for the first, 0.0528 for the second.

Going from ACTGGTTA to ACTTTAAC, the “PBM E-score” value rises from -0.121 to 0.0534.

Compared with ACAGGCCA, ATATCCCA is higher in “PBM E-score” value: -0.197 for the first, -0.00174 for the second.

Going from CGTCAATC to CAGTTGTA, the “PBM E-score” value falls from -0.0546 to -0.0781.

Going from AGAAGTAG to GATTGCGC, the “PBM E-score” value falls from -0.0963 to -0.103.

First: TCAGTCAA
Second: CAGGGCGC
The “PBM E-score” value of the first is higher: -0.0947 for the first, -0.267 for the second.

Going from ACAGCCAA to GGCGACAA, the “PBM E-score” value falls from -0.0999 to -0.164.

Compared with CGCGGAAC, ACAAGGGC is lower in “PBM E-score” value: 0.279 for the first, -0.264 for the second.

Compared with AGTGTAAG, CCCTAAGG is lower in “PBM E-score” value: -0.154 for the first, -0.312 for the second.

Going from AGCGGAGA to ACTATATC, the “PBM E-score” value rises from -0.0619 to 0.057.

First: GTCGGATA
Second: CATAGCTA
The “PBM E-score” value of the first is higher: 0.308 for the first, -0.186 for the second.

First: CGAGGCCA
Second: ATGGAGAG
The “PBM E-score” value of the first is higher: 0.196 for the first, -0.316 for the second.

Compared with AGGCGACG, GGGGACCC is lower in “PBM E-score” value: 0.00428 for the first, -0.226 for the second.

First: AATCTCCT
Second: CCCGTGAC
The “PBM E-score” value of the first is lower: -0.279 for the first, -0.208 for the second.

First: ATGTGCCA
Second: CCTATCCC
The “PBM E-score” value of the first is lower: -0.179 for the first, 0.0555 for the second.

Going from AATTACAG to CTTAAAGC, the “PBM E-score” value falls from 0.136 to 0.0218.

First: CCACTGGA
Second: ATCCTGAG
The “PBM E-score” value of the first is lower: -0.185 for the first, 0.0109 for the second.

Compared with AACGTGAT, CCGATTGA is higher in “PBM E-score” value: -0.0739 for the first, 0.105 for the second.

Compared with CCATGGCG, AGACGCCC is higher in “PBM E-score” value: -0.127 for the first, -0.00408 for the second.

Compared with GCGCCACA, AAATTTTA is higher in “PBM E-score” value: -0.157 for the first, 0.00096 for the second.

Going from CCAAAATC to CTTCACGC, the “PBM E-score” value falls from 0.00217 to -0.0333.

Going from CACAGTGC to ATCCACTA, the “PBM E-score” value rises from -0.162 to 0.0408.

First: CTCCCGAA
Second: AAAATGCA
The “PBM E-score” value of the first is higher: -0.0815 for the first, -0.279 for the second.

Compared with AACTCAGA, CCTTTCCG is lower in “PBM E-score” value: -0.0918 for the first, -0.124 for the second.

Compared with GCCTTTCC, GCATATCA is higher in “PBM E-score” value: -0.146 for the first, 0.0456 for the second.

Going from AAACCAAT to GCGTTAAA, the “PBM E-score” value rises from -0.0653 to 0.193.

First: GGAAACCC
Second: AACGTATT
The “PBM E-score” value of the first is lower: -0.0043 for the first, 0.229 for the second.

Compared with GGGGAGAC, AGCAGTAT is higher in “PBM E-score” value: -0.172 for the first, 0.0123 for the second.

First: CAACATGA
Second: CAGCTAAA
The “PBM E-score” value of the first is lower: 0.0013 for the first, 0.116 for the second.

First: CCGTTTCC
Second: CGTCCCTC
The “PBM E-score” value of the first is higher: 0.143 for the first, -0.126 for the second.

First: AAGTGGCT
Second: GCAGACTA
The “PBM E-score” value of the first is higher: -0.096 for the first, -0.184 for the second.

Going from CATGTTCG to CCGAAAGC, the “PBM E-score” value falls from 0.153 to -0.111.

Going from TAACGTGA to GGGATGGA, the “PBM E-score” value falls from -0.142 to -0.175.

Compared with CGAAAAAA, ATCCCAGC is lower in “PBM E-score” value: 0.205 for the first, -0.0508 for the second.

Going from ACGCTGCG to CTTACCTC, the “PBM E-score” value falls from -0.00203 to -0.189.

Compared with CAAGGCCG, AAGTAGTC is lower in “PBM E-score” value: -0.0953 for the first, -0.111 for the second.

First: TCAGAGGA
Second: CGCTGCAG
The “PBM E-score” value of the first is lower: -0.129 for the first, -0.0938 for the second.
